Reference: paper PMC12040169 (PLOS Biology, 2025)
The other results are listed elsewhere or left out.

What follows are molecules tested on T1, C. trachomatis L2/434/Bu expressing GFP (CTL2-GFP). Conditions: total inclusion area; 28.5 h, 10 µM; inhibitor.
T1 construct: L2/434/Bu GFP intracellular growth in HeLa cells
Design: species or system HeLa; C. trachomatis total inclusion area by high-content imaging, normalised to DMSO
Method in brief: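 After bulk GFP and resorufin fluorescence reads, cells were fixed, stained with Hoechst and imaged by high-content microscopy. Inclusion area and number (GFP) stood in for chlamydial growth, nuclei count (Hoechst) for host cell viability. MICs were derived as for the bulk readout.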

SMILES | % of control remaining
O=C1/C(=N\Nc2ccc([N+](=O)[O-])cc2[N+](=O)[O-])c2ccccc2N1CN1CCCCC1 [CBK260926] | 92.2267
CCOC(=O)c1ccccc1NC(=O)N[C@@H]1CC[C@@]2(c3ccc(OC)c(OC)c3)CCN(C)[C@H]2C1 [CBK047494T] | 89.4796
O=C(Cn1cc(C(=O)NCc2ccccc2)ccc1=O)Nc1cc(F)ccc1N1CCCC1 [CBK285998] | 0
Cc1ccc2oc(-c3cc(NC(=O)Cn4cnc5c(=O)n(C)c(=O)n(C)c54)ccc3O)nc2c1 [CBK267112] | 90.7625
CCn1c2ccccc2c2cc(Nc3cc(-c4cccc5ccccc45)ncn3)ccc21 [CBK090834] | 33.0869
Cc1cc(C)c(C)c(S(=O)(=O)NCCN2CCCCC2CO)c1C (stereo not shown) [CBK307333] | 76.4728
CC(C)(C)OC(=O)N1CCC(COc2ccc(-c3ccncc3)cn2)CC1 [CBK161777] | 31.3918
CCn1cc(S(=O)(=O)N2CCCC3(CCCCC3)C2)c(C)n1 [CBK282756] | 109.904
O=C(c1cc(F)c(F)cc1F)N1CCC2(CCCNC2)C1 (stereo not shown) [CBK137068T] | 90.8625
O=C(c1ncccc1O)N1CC(O)CC1c1cc(F)ccc1F (stereo not shown) [CBK306452] | 63.5924
COc1ccc(-c2ccc(CCC(=O)O)n2NC(N)=S)cc1 [CBK266018] | 154.805
NS(=O)(=O)c1ccc(N2C(=O)C(O)=C(C(=O)c3ccc(Cl)cc3)C2c2ccc([N+](=O)[O-])cc2)cc1 (stereo not shown) [CBK263758] | 101.141
O=C(NCc1sccc1Cl)Nc1cccc(Cl)c1 [CBK057110] | 44.3074
CC(C)(C)OC(=O)NCC1(CC(=O)O)CCCCC1 [CBK287030] | 100.786
O=C(c1cccnc1)N1CCN(Cc2cccc(Oc3ccccc3)c2)CC1 [CBK263326G] | 71.8948
O=C(NC1CCS(=O)(=O)C1)/C(=C\c1ccccc1)NC(=O)c1ccc([N+](=O)[O-])cc1 (stereo not shown) [CBK261034] | 89.7758
O=C(Cn1c(=O)n(Cc2cccs2)c2ncccc21)NCC1CC1 [CBK283899] | 84.1388
CCCCC(=O)NC(c1ccc(Cl)cc1)c1cc([N+](=O)[O-])c2cccnc2c1O (stereo not shown) [CBK293938] | 71.1227
CC(C)c1ccc(S(=O)(=O)NCC(C)(C)CO)cc1 [CBK043547] | 91.1169
Cc1ccc2nc(O)cc(C(=O)OCC(=O)c3cccc([N+](=O)[O-])c3)c2c1 [CBK265115] | 93.0804
CC(C)(CNS(=O)(=O)c1ccc(Cl)cc1)OCc1ccccc1 [CBK262088] | 75.3115
COc1ccc2cc(C(=O)NC3CCCN(C)C3)n(C)c2c1 (stereo not shown) [CBK282541] | 118.681
Cc1ccc(NC(=O)CN(c2ccccc2)S(=O)(=O)c2ccccc2[N+](=O)[O-])cc1C [CBK262345] | 94.232
c1coc(COc2cncc(N3CCNCC3)n2)c1 [CBK013393] | 60.9503
O=C(Nc1c(F)cccc1F)n1ccc2c(N3CCNCC3)cccc21 [CBK003745C] | 80.6341

SMILES | % of control remaining
CCCC1C(C(N)=O)=C(C)NC(C)=C1C(N)=O [CBK019102] | 25.8596
CCc1ccc(Oc2cc(N3CCC(C(=O)NC4CC4)CC3)ncn2)cc1 [CBK287854] | 112.536
C=CCn1c(SCC(=O)Nc2cc(Cl)ccc2C)nnc1-c1ccccc1O [CBK266867] | 103.91
CC(C)(C)NS(=O)(=O)c1ccc(OCC(=O)O)cc1 [CBK287077] | 105.442
CC(=O)Nc1ccc(S(=O)(=O)Nc2ccccc2C(=O)O)cc1 [CBK042361] | 93.7548
COc1ncc(-c2cc(N3CCN(CCN(C)C)CC3)n3nccc3n2)c(OC)n1 [CBK037033] | 111.374
COC(=O)Nc1ncc(CN2CCCCC2)s1 [CBK268208] | 86.2714
COc1ccc([C@@]23CC/C(=N/NS(=O)(=O)c4ccc(C)cc4)C[C@@H]2N(Cc2ccccc2)CC3)cc1OC [CBK002717] | 101.075
COc1ccc(NC(=S)NC(=N)N2CCN(Cc3ccccc3)CC2)cc1 [CBK267858] | 106.191
CCn1cc(C2CN(S(=O)(=O)c3sc(C)nc3C)CCO2)cn1 (stereo not shown) [CBK305420] | 83.0501
CCN1CCCC1CN(Cc1cccs1)Cc1cnc(C)n1C (stereo not shown) [CBK282603] | 86.7292
COC(=O)c1ccc(NC(=O)c2c(Br)c(Br)c(Br)c(Br)c2C(=O)O)cc1 [CBK261321] | 103.919
CC(C)CCn1cc(C(=O)N2CCNCC2c2cccc(Cl)c2)nn1 (stereo not shown) [CBK304115] | 82.9865
COc1ccc2[nH]c(C(=O)N3CCn4nc(CO)cc4C3)c(C)c2c1 [CBK307302] | 62.4083
CCCc1[nH]nc(O)c1Cc1ccccc1-c1ccccc1 [CBK075034] | 94.1257
Cc1ccc(NC(=O)c2cnc3ccccc3c2)c(C)n1 [CBK200290] | 115.083
S=C(Nc1ncn(Cc2ccc(Cl)c(Cl)c2)n1)Nc1ccc(Br)cc1Cl [CBK266940] | 104.165
CN1CCCN(c2nccnc2-c2ccccc2CO)CC1 [CBK038014] | 140.648
Cc1ccc(S(=O)(=O)OC[C@H]2O[C@@H](n3ccc(=O)[nH]c3=O)C[C@H]2O)cc1 [CBK201283] | 122.94
O=C(O)Cc1cnnn1-c1ccc(Cl)cc1Cl [CBK288035] | 97.5859
CC1(C)Cc2nc3sc(C(=O)O)c(NC(=O)c4ccccc4)c3cc2CO1 [CBK266166] | 89.885
Cc1nnc2sc(-c3ccc(NC(=O)CSc4ccc(Cl)cc4)cc3)nn12 [CBK266800] | 82.6358
Cn1[nH]c(COC(C)(C)C)c(Cc2c(Cl)cccc2Cl)c1=O [CBK093521] | 84.2564
Cc1ccc2c(c1)N(C(=O)COc1nc3ccccc3s1)C(C)(C)c1ssc(=S)c1-2 [CBK262696] | 85.5005
